Laboratory results reported in PMC12796746.
No constants are given. Whether binding was seen depends on the method and setting.

Sequences of proteins named here, by UniProt entry; tags and fusion partners are left off.
UniProt Q5XKR9: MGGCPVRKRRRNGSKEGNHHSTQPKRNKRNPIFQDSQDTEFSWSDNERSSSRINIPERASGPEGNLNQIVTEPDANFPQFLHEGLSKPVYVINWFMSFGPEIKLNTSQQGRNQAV
UniProt Q3SYC2: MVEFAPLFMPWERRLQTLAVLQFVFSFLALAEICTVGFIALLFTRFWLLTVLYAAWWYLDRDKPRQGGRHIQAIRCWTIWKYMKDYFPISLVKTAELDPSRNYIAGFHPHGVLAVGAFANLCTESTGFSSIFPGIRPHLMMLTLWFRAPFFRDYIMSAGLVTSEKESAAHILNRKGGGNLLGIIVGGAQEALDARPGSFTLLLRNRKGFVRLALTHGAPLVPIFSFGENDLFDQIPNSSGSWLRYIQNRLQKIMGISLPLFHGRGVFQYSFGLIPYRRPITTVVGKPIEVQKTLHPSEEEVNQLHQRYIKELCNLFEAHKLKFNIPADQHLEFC

Assays:
Assay in all cases: peptide or protein array; HuProt Human Proteome Microarray v2.0, full-length human proteins spotted in duplicate; V5-tagged TRPV4 protein in solution at 1 μM, 1 h at 4 °C, 150 mM NaCl, 2.7 mM KCl, 25 mM Trizma base, 0.05% Tween-20, pH 7.4; detected with Alexa Fluor 647 anti-V5; hit: z-score >= 2 (N terminus: both of 2 slides; ARD constructs: at least 2 of 3 slides); both purified
[1] = molecular target: T1, ADP-ribosylation factor-like protein 10 (human) (UniProt Q8N8L6)
T1 sequence: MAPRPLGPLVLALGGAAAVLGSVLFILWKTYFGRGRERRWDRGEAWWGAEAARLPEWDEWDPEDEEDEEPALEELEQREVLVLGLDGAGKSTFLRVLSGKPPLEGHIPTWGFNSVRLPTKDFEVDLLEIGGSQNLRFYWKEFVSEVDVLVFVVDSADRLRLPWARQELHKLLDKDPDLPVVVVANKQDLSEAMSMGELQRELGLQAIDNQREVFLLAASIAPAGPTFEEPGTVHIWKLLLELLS

[2] = molecular target: T2, Telomeric repeat-binding factor 2-interacting protein 1 (human) (UniProt Q9NYB0)
T2 sequence: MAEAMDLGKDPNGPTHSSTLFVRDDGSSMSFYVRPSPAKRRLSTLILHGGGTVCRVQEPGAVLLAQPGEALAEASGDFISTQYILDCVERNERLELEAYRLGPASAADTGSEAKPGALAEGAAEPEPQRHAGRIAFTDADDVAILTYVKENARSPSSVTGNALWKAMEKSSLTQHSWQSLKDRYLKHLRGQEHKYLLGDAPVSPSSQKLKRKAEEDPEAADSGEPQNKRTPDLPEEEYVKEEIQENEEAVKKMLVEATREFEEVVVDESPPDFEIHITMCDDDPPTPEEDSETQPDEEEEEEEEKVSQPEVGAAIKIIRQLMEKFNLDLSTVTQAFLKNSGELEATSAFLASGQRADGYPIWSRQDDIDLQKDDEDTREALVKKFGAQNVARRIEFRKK

[3] = molecular target: T3, Rho guanine nucleotide exchange factor 10 (on the HuProt array) (human) (UniProt O15013)
T3 sequence: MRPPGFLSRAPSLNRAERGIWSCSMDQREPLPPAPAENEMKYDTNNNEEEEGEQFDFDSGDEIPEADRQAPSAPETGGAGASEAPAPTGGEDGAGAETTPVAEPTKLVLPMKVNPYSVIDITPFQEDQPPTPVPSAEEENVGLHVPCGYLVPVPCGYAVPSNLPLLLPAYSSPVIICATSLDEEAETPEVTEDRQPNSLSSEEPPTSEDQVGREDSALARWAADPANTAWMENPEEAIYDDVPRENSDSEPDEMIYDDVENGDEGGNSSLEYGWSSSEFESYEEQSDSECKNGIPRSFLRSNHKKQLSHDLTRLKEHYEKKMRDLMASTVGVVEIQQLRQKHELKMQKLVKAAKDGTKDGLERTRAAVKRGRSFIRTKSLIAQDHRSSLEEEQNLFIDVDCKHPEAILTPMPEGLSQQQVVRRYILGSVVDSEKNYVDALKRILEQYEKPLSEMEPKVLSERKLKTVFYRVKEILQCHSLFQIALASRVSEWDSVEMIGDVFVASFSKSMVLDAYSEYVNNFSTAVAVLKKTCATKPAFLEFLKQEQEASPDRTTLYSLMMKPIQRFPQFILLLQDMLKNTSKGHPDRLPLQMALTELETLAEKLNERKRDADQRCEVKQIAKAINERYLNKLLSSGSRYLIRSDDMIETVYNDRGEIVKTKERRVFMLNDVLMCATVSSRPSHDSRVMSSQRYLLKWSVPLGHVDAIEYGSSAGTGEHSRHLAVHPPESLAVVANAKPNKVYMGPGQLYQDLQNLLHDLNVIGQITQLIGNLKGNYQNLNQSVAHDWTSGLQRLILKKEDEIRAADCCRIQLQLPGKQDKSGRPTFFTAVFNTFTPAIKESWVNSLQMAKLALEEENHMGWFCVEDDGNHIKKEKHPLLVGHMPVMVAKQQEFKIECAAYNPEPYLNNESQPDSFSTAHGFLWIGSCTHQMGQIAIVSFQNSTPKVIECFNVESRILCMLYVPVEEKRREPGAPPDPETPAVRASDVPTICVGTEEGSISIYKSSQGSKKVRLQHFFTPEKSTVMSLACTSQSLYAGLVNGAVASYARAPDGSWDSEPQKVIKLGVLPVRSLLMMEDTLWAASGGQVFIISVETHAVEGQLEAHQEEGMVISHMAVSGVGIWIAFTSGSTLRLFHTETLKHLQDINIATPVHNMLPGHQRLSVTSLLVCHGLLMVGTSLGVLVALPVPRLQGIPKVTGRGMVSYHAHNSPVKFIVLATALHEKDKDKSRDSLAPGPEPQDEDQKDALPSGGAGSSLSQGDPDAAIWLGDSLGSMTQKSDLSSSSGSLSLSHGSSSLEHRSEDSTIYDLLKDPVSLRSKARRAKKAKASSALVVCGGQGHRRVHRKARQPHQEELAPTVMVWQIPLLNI

Protein FAM104B (human) = Protein FAM104B (human) (UniProt Q5XKR9)
[4] = molecular target: 2-acylglycerol O-acyltransferase 2 (human) (UniProt Q3SYC2)

Row | binding [1] | binding [2] | binding [3] | binding (Protein FAM104B (human)) | binding [4] | Substance
1 | no binding (tested: 1 μM) | no binding (tested: 1 μM) | no binding (tested: 1 μM) | no binding (tested: 1 μM) | no binding (tested: 1 μM) | TRPV4^R269C-ARD (from UniProt Q9HBA0 149-397) (domain or fragment)
2 | no binding (tested: 1 μM) | no binding (tested: 1 μM) | no binding (tested: 1 μM) | no binding (tested: 1 μM) | no binding (tested: 1 μM) | TRPV4^R315W-ARD (from UniProt Q9HBA0 149-397) (domain or fragment)
